From PubChem BioAssay AID360 (National Center for Advancing Translational Sciences (NCATS), 2006) come the findings set out here.

The whole screen tested about 48,000 compounds, of which about 550 (1.1%) were called active. About 4% were inconclusive and are not listed. No stated cut-off is given here; in the data, active means potency below about 15 µM; inconclusive means mostly about 16 µM to 33 µM; inactive means weaker than that. The list shows a part of the results.
Potency means the concentration at half of the fitted maximal effect.

The target in this assay is Lysosomal acid glucosylceramidase (Homo sapiens) (UniProt P04062). Put plainly: Glucocerebrosidase.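 Further: the screen sought inhibitors.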 Conditions: purified enzyme, resorufin glucoside fluorescence (screen aimed at inhibitors), 20 min. In short, it runs like this: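 Normal human glucocerebrosidase (0.2 nM final) was assayed with resorufin β-D-glucopyranoside (30 uM final) in 50mM citric acid/KH2PO4, 10mM sodium taurocholate, 0.01% tween-20, pH 5.9. Compounds were titrated; fluorescence (Ex 548, Em 600) read after 20 min at RT.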
Sequence of UniProt P04062 (P04062 whole entry, looked up): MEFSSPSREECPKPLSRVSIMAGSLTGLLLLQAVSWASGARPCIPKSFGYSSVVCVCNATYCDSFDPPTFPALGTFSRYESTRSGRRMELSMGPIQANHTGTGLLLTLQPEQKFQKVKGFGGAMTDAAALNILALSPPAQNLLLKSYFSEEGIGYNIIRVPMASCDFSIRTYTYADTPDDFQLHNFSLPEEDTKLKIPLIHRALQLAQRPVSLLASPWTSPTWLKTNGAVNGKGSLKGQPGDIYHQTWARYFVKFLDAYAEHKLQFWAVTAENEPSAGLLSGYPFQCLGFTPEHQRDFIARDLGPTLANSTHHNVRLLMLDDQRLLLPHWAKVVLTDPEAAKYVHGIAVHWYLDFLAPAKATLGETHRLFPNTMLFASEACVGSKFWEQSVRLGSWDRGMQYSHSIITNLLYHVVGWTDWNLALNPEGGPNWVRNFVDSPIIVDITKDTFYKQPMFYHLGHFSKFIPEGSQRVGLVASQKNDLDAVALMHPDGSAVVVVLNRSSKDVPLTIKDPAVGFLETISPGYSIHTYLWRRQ
As to `CCn1c(SCC(=O)Nc2cc(OC)c(OC)c(OC)c2)nnc1-c1cccs1`, the Potency is inactive: > 76.9 µM.
The figure for `CS/C(=N\S(=O)(=O)c1cccs1)Nc1ccc(N2CCOCC2)cc1` is inactive: > 76.9 µM; for `Cc1coc(C)c1C(=O)CC1(O)C(=O)Nc2cc(Cl)cc(Cl)c21` (stereo unspecified) it is inactive: > 76.9 µM.
Under `ONC=Nc1cccc2nonc12` stands inactive: > 76.9 µM; under `CCN(CC(=O)NCc1cccs1)S(=O)(=O)c1cccc(C(C)=O)c1`, inactive: > 76.9 µM.
With `COC1(OC)N=C(N)C2(C#N)C(c3ccc(C)cc3)C12C#N` (stereo unspecified), the Potency is inactive: > 76.9 µM.
Consider `Cn1cc(Cl)c(-c2nc3ccccc3[nH]2)n1`, for which the Potency is inactive: > 76.9 µM.
The figure for `COC(=O)c1ccccc1NC1OC(=O)c2ccccc21` (stereo unspecified) is inactive: > 76.9 µM; for `N=C1C(c2ccccc2)=C(O)CN1c1ccccc1N1CCOCC1` it is inactive: > 76.9 µM; for `CS(=O)(=O)N(CC(=O)Nc1ccccc1C(=O)N1CCOCC1)c1ccc2c(c1)OCO2` it is inactive: > 76.9 µM.
The figure for `CCN(CC)C(=O)C1CC(c2ccc(OC)cc2)=NO1` (stereo unspecified) is inactive: > 76.9 µM; for `COc1ccccc1C1CC(c2ccc(Cl)cc2)Nc2ncnn21` (stereo unspecified) it is inactive: > 76.9 µM.
Under `CC(=O)Nc1ccc(S(=O)(=O)N2CCC(NC(C)=O)(c3cccc(F)c3)CC2)cc1` stands inactive: > 76.9 µM; under `O=C(CN1C(=O)CCS(=O)(=O)c2ccccc21)NCc1ccccc1`, inactive: > 76.9 µM.
For the compound `CCOC(=O)C(C)Sc1ccc2nnc(-c3ccc(F)cc3)n2n1` (stereo unspecified), the Potency was inactive: > 76.9 µM.
Under `COc1ccc(C(O)c2nc3ccccc3s2)cc1` (stereo unspecified) stands inactive: > 76.9 µM; under `CCN(CC)c1ccc(NC(=O)c2ccco2)c(C)c1`, inactive: > 76.9 µM; under `O=C(O)c1cccc(COc2ccccc2Cl)c1`, inactive: > 76.9 µM.
Under `CN1CCN(CC(=O)Nc2ccc(Cl)cc2Cl)CC1` stands inactive: > 76.9 µM; under `COc1ccccc1Oc1coc2cc(OC(=O)N3CCOCC3)ccc2c1=O`, inactive: > 76.9 µM.
The figure for `COc1cccc(C(=O)NCc2nnc(SCC(=O)Nc3nccs3)n2-c2cccc(C)c2)c1` is inactive: > 76.9 µM; for `CC(=O)C1=C(O)C(=O)N(Cc2ccco2)C1c1ccc2c(c1)OCO2` (stereo unspecified) it is inactive: > 76.9 µM; for `CN(C)C(CNC(=O)c1cccnc1Sc1ccccc1)c1ccco1` (stereo unspecified) it is inactive: > 76.9 µM.
As to `CC(=O)c1cccc(NC(=O)N2CCCc3ccccc32)c1`, the Potency is inactive: > 76.9 µM.
`O=C(OCC1COc2ccccc2O1)c1c(F)cccc1F` (stereo unspecified): the Potency is inactive: > 76.9 µM.
For the compound `CCc1ccccc1NC(=O)CSc1nnc([C@@H]2CCCN2C(=O)OC(C)(C)C)o1`, the Potency is inactive: > 76.9 µM.
